Measurements: ChEMBL document CHEMBL4888484, “Replenishing the malaria drug discovery pipeline: Screening and hit evaluation of the MMV Hit Generation Library 1 (HGL1) against asexual blood stage Plasmodium falciparum ,using a nano luciferase reporter read-out” (2022)
Out of some 150,000 compounds screened, about 540 (0.36%) showed an effect of 50% or more. This is one part of the list.

What follows are molecules tested on Plasmodium falciparum (assay: Primary screen in NF54 nanoGlo assay, in single point, at 2uM, 72h; a lower Z score goes with more inhibition). Settings: timepoint 72 hour.
Assay type: functional, Erythrocyte

In order of falling “% Inhibition” value:
1. Cn1cc(N)c(Oc2ccc(F)cc2F)n1  37%
2. Cc1ncsc1C(=O)NCCN1c2cc(F)ccc2N(C)S1(=O)=O  13%
3. Cc1ncnc(N2CCN(Cc3nncn3C(C)C)CC2)c1C  10%
4. COc1cc2c(cc1OC)CN(C(=O)c1ccc3c(c1)OCCO3)CC2  7%
5. Cc1noc(C)c1CN(C)C(=O)c1ccc(-c2cnn(C)c2N)cc1  6%
6. O=C(Nc1cnns1)c1cncc(Br)c1  5%
7. CN(c1ccc2ccccc2n1)S(=O)(=O)C[C@H]1CCCO1  -2%
8. Cc1ccc2[nH]c(C(=O)N3CC[C@H](O)CC(C)(C)C3)cc2c1C  -2%
9. Cc1cccc(CN2CC[C@]3(O)CCN(C(=O)C4CCCC4)C[C@@H]3C2)n1  -2%
10. CCCOc1ccc(CN[C@H]2CCCc3c(OC)cccc32)cn1  -3%
11. CCCn1cc(C(=O)N(C)CC2(C)COC2)c(C)n1  -3%
12. O=C(NC1CCCCCC1)c1nc(N2CCCC2)c2ccccc2n1  -5%
13. Cc1ccc(NC(=O)[C@@H]2CCN(c3cccc(C)c3C)C2=O)cc1  -6%
14. CCOc1ccc(C(=O)NCC(=O)Nc2ccc3c(c2)OCCCO3)cc1  -8%
15. O=C(C1CCCCC1)N1CC2CCC2(Nc2ncccn2)C1 (stereo not drawn)  -8%
16. CCC(=O)Cn1nc(CC)c(CC)c(C#N)c1=O  -11%
17. COCCN1C(=O)C[C@](CC(=O)N2CCN(Cc3ccncc3)CC2)(c2ccccc2C)C1=O  -12%
18. COc1cccc(-c2ccc(N3CCN(C(=O)CN(CC(C)C)C(=O)C4CCC4)CC3)nn2)c1  -12%
19. C=CCCC(=O)N(CCN1CCCS1(=O)=O)c1cccc(F)c1  -13%
20. Cc1cn2cc(CC(=O)N[C@@H]3CCCc4cccnc43)nc2s1  -14%
21. O=C(NCc1ccco1)c1[nH]nc2c1CN(C(=O)Cc1ccc(Cl)c(Cl)c1)CC2  -15%
22. O=C(Nc1nccs1)C1CCC(Cn2cnnn2)CC1 (stereo not drawn)  -15%
23. Cc1cc(NCCOCC(F)(F)F)c(C(N)=O)cc1F  -17%
24. Cc1ccc2nc(-c3ccc(NC(=O)c4cccc5ccccc45)cc3)oc2c1  -32%

In order of falling Z score:
1. Cc1ccc2nc(-c3ccc(NC(=O)c4cccc5ccccc45)cc3)oc2c1  3.75
2. Cc1cc(NCCOCC(F)(F)F)c(C(N)=O)cc1F  2.82
3. Cc1cn2cc(CC(=O)N[C@@H]3CCCc4cccnc43)nc2s1  2.19
4. O=C(Nc1nccs1)C1CCC(Cn2cnnn2)CC1 (stereo not drawn)  1.88
5. COCCN1C(=O)C[C@](CC(=O)N2CCN(Cc3ccncc3)CC2)(c2ccccc2C)C1=O  1.86
6. O=C(NCc1ccco1)c1[nH]nc2c1CN(C(=O)Cc1ccc(Cl)c(Cl)c1)CC2  1.77
7. COc1cccc(-c2ccc(N3CCN(C(=O)CN(CC(C)C)C(=O)C4CCC4)CC3)nn2)c1  1.76
8. C=CCCC(=O)N(CCN1CCCS1(=O)=O)c1cccc(F)c1  1.33
9. CCC(=O)Cn1nc(CC)c(CC)c(C#N)c1=O  1.31
10. O=C(C1CCCCC1)N1CC2CCC2(Nc2ncccn2)C1 (stereo not drawn)  1.06
11. CCOc1ccc(C(=O)NCC(=O)Nc2ccc3c(c2)OCCCO3)cc1  0.91
12. O=C(NC1CCCCCC1)c1nc(N2CCCC2)c2ccccc2n1  0.9
13. Cc1ccc(NC(=O)[C@@H]2CCN(c3cccc(C)c3C)C2=O)cc1  0.57
14. CCCn1cc(C(=O)N(C)CC2(C)COC2)c(C)n1  0.5
15. CCCOc1ccc(CN[C@H]2CCCc3c(OC)cccc32)cn1  0.42
16. CN(c1ccc2ccccc2n1)S(=O)(=O)C[C@H]1CCCO1  0.28
17. Cc1ccc2[nH]c(C(=O)N3CC[C@H](O)CC(C)(C)C3)cc2c1C  0.28
18. Cc1cccc(CN2CC[C@]3(O)CCN(C(=O)C4CCCC4)C[C@@H]3C2)n1  0.22
19. O=C(Nc1cnns1)c1cncc(Br)c1  -0.78
20. Cc1noc(C)c1CN(C)C(=O)c1ccc(-c2cnn(C)c2N)cc1  -0.82
21. Cn1cc(N)c(Oc2ccc(F)cc2F)n1  -0.93
22. COc1cc2c(cc1OC)CN(C(=O)c1ccc3c(c1)OCCO3)CC2  -1.16
23. Cc1ncsc1C(=O)NCCN1c2cc(F)ccc2N(C)S1(=O)=O  -1.67
24. Cc1ncnc(N2CCN(Cc3nncn3C(C)C)CC2)c1C  -1.85
